Results as given in the antibiotic and cytotoxicity screens of Wong et al. (2023).
The other results are listed elsewhere or left out.

These molecules were tested on S. aureus RN4220 (assay: growth inhibition call (relative growth <= 0.2)). Settings: 50 µM.

Growth inhibition call, inactive:
Cc1ccc(S(=O)(=O)Nc2ccc3c(c2)CC(=O)N([C@@H](C)CO)C[C@@H](C)[C@@H](CN(C)C(=O)Nc2ccc(C(F)(F)F)cc2)O3)cc1
COc1ccccc1CNC(=O)C[C@H]1CC[C@@H]2[C@H](COC[C@H](O)CN2C(=O)Nc2ccc(F)cc2)O1
C/C=C/c1cccc(-c2nc(C(=O)NCc3ccc(OC)cc3)cc3c2[C@@H](CCO)N([S@](=O)C(C)(C)C)C3)c1
Cc1noc(C)c1NC(=O)Nc1ccc2c(c1)C(=O)N([C@@H](C)CO)C[C@@H](C)[C@H](CN(C)S(=O)(=O)c1ccccc1)OCCCC[C@H](C)O2
C[C@H](CO)N1C[C@H](C)[C@H](CN(C)Cc2ccc(F)cc2)OCc2ccccc2-c2c(n(C)c3ccccc23)C1=O
COc1ccc(NC(=O)N(C)C[C@H]2Oc3c(NC(=O)c4cnccn4)cccc3C(=O)N([C@H](C)CO)C[C@@H]2C)cc1
C[C@@H]1CN([C@H](C)CO)S(=O)(=O)c2ccc(C#CC3CC3)cc2O[C@@H]1CN(C)Cc1ccc(F)cc1
CCn1c(-c2nonc2N)nc2cncc(C(=O)N3CC[C@H](N)C3)c21
N#CCOc1cccc2ccccc12
